Some of the results follow.
Test system: PfHDP1 homeodomain (GST-tagged)
Experiment: gcPBM binding intensity (ln(normalized median fluorescence intensity)); higher = stronger DNA binding
Summary of the method: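 Each value is the highest Masliner-normalised natural-log median intensity across replicate spots of either orientation of a probe. The probes were primer-extended double-stranded 36-bp intergenic genomic sequences on an Agilent 4 × 180k array, alongside negative controls, exposed for 1 h to GST-tagged P. falciparum DNA-binding domains expressed in E. coli. Bound protein was picked up with Alexa488 anti-GST antibody and scanned at 488 nm.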

| Sequence | gcPBM binding intensity (ln) |
| --- | --- |
| AAAAAACAAAAAAATACACACATAAAAAGGTTTTAG [CACACA_site3584] | 6.58 |
| TAAACATAACAAAGGAGTACAAAACTTGATCAGTTC [XGTACX_site3114] | 6.67 |
| AAATATGTCAAATATACACACATAATAAATATAATA [CACACA_site2310] | 6.39 |
| TTATAAGATGATTATAAAATCAAATTCATTCTTTTA [CACACA_negctrl_site1338] | 5.78 |
| GAAATGGGTAAACATACACACACACCGATATATATA [CACACA_site8610] | 6.89 |
| TAACAATTATGCTGGTGTACGTTTGAAATTGGGTAT [XGTACX_site6846] | 6.58 |
| AAAAATTTCTATTTTTGTACTTACTTTTTAGTAATA [XGTACX_site5236] | 5.8 |
| AATAAATGGAAAAGGTGTACACAAAAAAAAGGGAAA [XGTACX_site4956] | 7.54 |
| AAAAAAAAAAAAAAAACATGCAGTTAGTGGTTTTTT [TGCATGCA_site243] | 6.61 |
| TACACAAGAAAATTCACACACACACCGATATATATA [CACACA_site6008] | 6.93 |
| AAATCTTCATAATAAAGTACTTAACTCTTGGTGTTA [XGTACX_site6112] | 6.24 |
| CTTATATTTGGACACACACACAATAAAATGAAAAAA [CACACA_site6614] | 6.8 |
| AAAAAAAAAGACAAAAGTACAAAGGTTCATAATTTA [XGTACX_site3978] | 6.13 |
| GATTTACATTTTGATGAAAATAATAAAATGTGGAAA [TGCATGCA_negctrl_site409] | 6.4 |
| ATATTTTATTTTTAAAGTACAAAAGAAAAGAATAAT [XGTACX_site8247] | 6.56 |
| AACATCAAAATATGCACACAAACAATTAGCGGTAGT [CACACA_site2521] | 9.95 |
| AACAAAATAGGGAACACACACATGTCGATATATAAA [CACACA_site7265] | 6.71 |
| ATACACACATATATGTGTACATATACATATATATAT [XGTACX_site6744] | 8.56 |
| ATAATATGAAGAAGCACACTCAATTAAATACAGATA [CACACA_site4690] | 6.71 |
| CACAGACACGGACACACACACATATATATATATATA [CACACA_site5248] | 9.37 |
| ATATATATATAAAGCAGTACACACATTTATTTTAGA [XGTACX_site7226] | 8.41 |
| TATGAACTTTTGGGGGTGCCTTAAAATGTATATTCT | 7.15 |

| Sequence | gcPBM binding intensity (ln) |
| --- | --- |
| TCCCAATTTATTATGTGTACTTATTATATACATATA [XGTACX_site4033] | 6.68 |
| TATCAAAGTAGAAGAGATCGATGTCATATTGTGATG [GTGCAC_negctrl_site42] | 6.67 |
| TTATGAATACTTCAAGTGCATTTATTTTATATGACA | 8.23 |
| ATATTCTAAATAAAGGGTACACAAAAATAATTAAAG [XGTACX_site5529] | 6.9 |
| ATTGTGGATATTCTTACACACAAATTTATATATAAA [CACACA_site2601] | 6.4 |
| TTTTGTATATTATATGTACACACAATAAGTTAATAT [CACACA_site8207] | 6.71 |
| TATTTGTAATATTATACACACATTATGTATTACAAA [CACACA_site3386] | 6.92 |
| CATAAATATTTGTGTTGTACAAATATATATATTTAT [XGTACX_site7363] | 6.55 |
| TTGTGTGAGCAAGTAGTGCATAATATAAATAAAAAA [GTGCAC_site9802] | 9.89 |
| TGAAATTTGTTATATGCATGTAAAATATTACGACGA [TGCATGCA_site201] | 6.59 |
| AAAATTGAAGGTAGAAGTACATATTTATTTCAATAA [XGTACX_site8732] | 6.11 |
| TATATAATATATTTATGTACGTATTTAAAAATTTAT [XGTACX_site160] | 6.5 |
| GAAGGAAATAAATCAACACACATATATTATATATAT [CACACA_site2188] | 7.11 |
| TGTATTTATTAATGTACACACATGCGTATGTTCGTT [CACACA_site5892] | 6.82 |
| AAGAATTATTTTTTATGTACTTATATGTCAATTTTC [XGTACX_site6676] | 6.35 |
| ATAGAATATTTTATTACACACAGAATAATAAAAAAT [CACACA_site6190] | 6.29 |
| TTATTTTTTTTAGCATATACAAATATATATATATAT [GTGCAC_negctrl_site4] | 8.98 |
| CTAAAAGGATGATGAATGCACTATTATTTATATGGA | 7.69 |
| TTTAAAAATATTTCACGTACGCATTTTAAAAAGTAT [XGTACX_site8026] | 6.45 |
| AAATAGTAAGAGATGGTGCGTTTCCTTTTTTTTTTT [GTGCAC_site9663] | 6.67 |
| TTTTTTTCATATATATGTACATAATTATATATGCAT [XGTACX_site3257] | 6.68 |
| TTAATTATATGGTAAACAAATAAATGTGAAAGGAAA [XGTACX_negctrl_site389] | 6.89 |
